Results from PMC5892938.
Some of the results follow. At the low end of the ranking the order means little.
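Also: DESeq read counts versus GST-SBP nonspecific binding control pulldown.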

These sequences were tested against GST-SBP-SLBP (stem-loop binding protein) (UniProt Q14493) (assay: targeted RNA Bind-n-Seq). Conditions: RBNS binding buffer: 25 mM Tris pH 7.5, 150 mM KCl, 3 mM MgCl2, 0.1% Tween, 0.5 mg/mL BSA, 1 mM DTT; 27 nM protein, 750 pM RNA pool; temperature not stated; high values mean tight binding.
“GGUCACGUCUCAAUCAACUCAAAAGAGGGGGGGAAAACCCCUUUGCCCUCAAAAUCAACAGCUCGCAGUCAAG” gave a binding signal (log2 fold change) of -0.113.
For “GGUCACGUCUCAAUCAACUCUAUCUCAGGAGUUUCCUCCUGUAAUUUCAACAGCUCGCAGUCAAG”, the binding signal (log2 fold change) was 0.21.
Work on “GGUCACGUCUCAAUCAACUCCCAAGAGGGGGGGAAAACCCCUUUGCCCUCGUAAUCAACAGCUCGCAGUCAAG” yielded a binding signal (log2 fold change) of 0.27.
Sequence “GGUCACGUCUCAAUCAACUCAAACGAGGGGGGGAAAACCCCUUUACCCUCAAUAUCAACAGCUCGCAGUCAAG” has a binding signal (log2 fold change) of -0.192.
“GGUCACGUCUCAAUCAACUCUAUCCCCAGGGAAAACCCUGGCUUUUUCAACAGCUCGCAGUCAAG” was tested, and the binding signal (log2 fold change) was -0.0301.
“GGUCACGUCUCAAUCAACUCAUUCCCCAGGGAAAACCCUGGCAUACUCAACAGCUCGCAGUCAAG” was tested, and the binding signal (log2 fold change) was -0.117.
Sequence “GGUCACGUCUCAAUCAACUCUUUCGCAGGAGUUUACUCCUGGUUUCUCAACAGCUCGCAGUCAAG” has a binding signal (log2 fold change) of -0.00289.
“GGUCACGUCUCAAUCAACUCCUCAGAGGGGGGGAAAACCCCUUUACCCUCGUAUUCAACAGCUCGCAGUCAAG” gave a binding signal (log2 fold change) of -0.124.
For “GGUCACGUCUCAAUCAACUCAAUUUCCAGGGAAAACCCUGGCUUAUUCAACAGCUCGCAGUCAAG”, the binding signal (log2 fold change) was 0.0437.
Work on “GGUCACGUCUCAAUCAACUCCUUCGAGGGGGGGAAAACCCCUUUACCCUCACCUUCAACAGCUCGCAGUCAAG” yielded a binding signal (log2 fold change) of 0.36.
“GGUCACGUCUCAAUCAACUCAAUCUCAGGAGUUUGCUCCUGUUUACUCAACAGCUCGCAGUCAAG” gave a binding signal (log2 fold change) of 0.241.
Work on “GGUCACGUCUCAAUCAACUCAUCCCCCAGGGAAACCCCUGGCAAUCUCAACAGCUCGCAGUCAAG” yielded a binding signal (log2 fold change) of 0.113.
“GGUCACGUCUCAAUCAACUCAGUCCCCAGGGAAAUCCCUGGCAAAUUCAACAGCUCGCAGUCAAG” gave a binding signal (log2 fold change) of -0.1.
For “GGUCACGUCUCAAUCAACUCUUUUUCAGGAGUUUUCUCCUGCUUUGUCAACAGCUCGCAGUCAAG”, the binding signal (log2 fold change) was -0.0102.
“GGUCACGUCUCAAUCAACUCAUUUUCAGGAGUUUUCUCCUGUUUACUCAACAGCUCGCAGUCAAG” was tested, and the binding signal (log2 fold change) was -0.0305.
“GGUCACGUCUCAAUCAACUCAAUCUCCAGGGAAAUCCCUGGUUAUCUCAACAGCUCGCAGUCAAG” was tested, and the binding signal (log2 fold change) was 0.281.
In the case of “GGUCACGUCUCAAUCAACUCUCAAGAGGGGGGGAAAACCCCUUUACCCUCCACGUCAACAGCUCGCAGUCAAG”, the binding signal (log2 fold change) is reported as 0.018.
Work on “GGUCACGUCUCAAUCAACUCUUUCCCAGGAGUUUACUCCUGCUAUUUCAACAGCUCGCAGUCAAG” yielded a binding signal (log2 fold change) of 0.0801.
Sequence “GGUCACGUCUCAAUCAACUCUUUUUCCAGGGAAAACCCUGGCAUACUCAACAGCUCGCAGUCAAG” has a binding signal (log2 fold change) of 0.224.
Sequence “GGUCACGUCUCAAUCAACUCUAUCUCAGGAGUUUUCUCCUGUUAUUUCAACAGCUCGCAGUCAAG” has a binding signal (log2 fold change) of -0.0388.
